The supplement of paper PMC10126150
Values marked as one replicate rest on one cluster of the flow cell; about a third of the high ones do not repeat.
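Note: ATP exposure 15 min at 22 °C before imaging.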

What follows are sequences tested on ATP (assay: switch fluorescence ratio, 500 uM ATP over buffer (Cy3 cluster intensity, sum of 5 cycles each) (fold (ratio)); higher = stronger signal-on switching upon ATP binding; sequences stand for … in TCGTCGGCAGCGTCAGATGTGTATAAGAGACAGTTTTTTTTTTTTTTTTTTTTTTTTT…TC). Details: aptamer strand: ATP DNA aptamer (quencher-CACCTGGGGGAGTATTGCGGAGGAAGG + anchor), 100 nM annealed; ATP concentration: 500 uM; one replicate.
Method in brief: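 Cy3-labelled switching-strand clusters on a modified Illumina MiSeq flow-cell were annealed to 100 nM quencher-labelled ATP aptamer and imaged first in selection buffer, then after 15 min with 500 uM ATP at 22 °C. NaOH stripping and re-annealing separated each of five buffer/ATP cycles, and clusters outside 100-1000 RFU were excluded. The fluorescence ratio sums target-cycle Cy3 intensity over buffer-cycle Cy3 intensity per cluster and averages it per switch-domain sequence.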
CCCCTATAAT was tested, and the switch fluorescence ratio was 1.04. With CCCCTGCAG the switch fluorescence ratio was 2.14. In the case of CCCCTGGTTA, the switch fluorescence ratio was 1.08. In the case of CCCCTGTAGC, the switch fluorescence ratio was 1.33. CCCCTGTCAT was tested, and the switch fluorescence ratio was 1.07. In the case of CCCCTTTTCA, the switch fluorescence ratio was 1.03. In the case of CCCGAACTGA, the switch fluorescence ratio was 0.967. Sequence CCCGACGGAT has a switch fluorescence ratio of 1.25. Sequence CCCGAGCGGG has a switch fluorescence ratio of 0.983. CCCGATATCA gave a switch fluorescence ratio of 0.971. CCCGGACACG gave a switch fluorescence ratio of 1.05. CCCGGATTGG was tested, and the switch fluorescence ratio was 1. Work on CCCGGCTCCC yielded a switch fluorescence ratio of 2.19. CCCGGTCATG gave a switch fluorescence ratio of 0.999. Work on CCCGTAAGTT yielded a switch fluorescence ratio of 1.1. Work on CCCGTACGTG yielded a switch fluorescence ratio of 1.02. CCCTATATC was tested, and the switch fluorescence ratio was 1.11. In the case of CCCTCGGACT, the switch fluorescence ratio was 1.01. Work on CCCTCGTTA yielded a switch fluorescence ratio of 0.984. Work on CCCTGTCCCG yielded a switch fluorescence ratio of 1.06. Work on CCCTTCCGTG yielded a switch fluorescence ratio of 2.12. CCCTTCTCGC gave a switch fluorescence ratio of 1.76. CCCTTGAAGG gave a switch fluorescence ratio of 0.993. In the case of CCCTTGAGGG, the switch fluorescence ratio was 1.07. CCCTTGGAGC showed a switch fluorescence ratio of 1.48. CCCTTTAGAG showed a switch fluorescence ratio of 1.01. CCCTTTCACC gave a switch fluorescence ratio of 1.1. In the case of CCCTTTTATC, the switch fluorescence ratio was 1. For CCGAAAAGAG, the switch fluorescence ratio was 1.1. With CCGAAAAGGG the switch fluorescence ratio was 1.36. For CCGAAAGCCC, the switch fluorescence ratio was 2.99. CCGAAAGGCG was tested, and the switch fluorescence ratio was 1.13. Sequence CCGAAGTGAG has a switch fluorescence ratio of 3.24. For CCGAATACAA, the switch fluorescence ratio was 2.81. CCGACAGAAT showed a switch fluorescence ratio of 4.67. For CCGACTAACG, the switch fluorescence ratio was 1.33. With CCGACTCATG the switch fluorescence ratio was 1.58. In the case of CCGACTGTTT, the switch fluorescence ratio was 1.5. Work on CCGAGAAGTC yielded a switch fluorescence ratio of 1.44. Sequence CCGAGGGGAG has a switch fluorescence ratio of 1.06. In the case of CCGAGTTGCT, the switch fluorescence ratio was 1.28. Work on CCGATATAGT yielded a switch fluorescence ratio of 1.39. CCGATCCGCT gave a switch fluorescence ratio of 3.61. For CCGATCCTTA, the switch fluorescence ratio was 1.02. CCGATGGAGT was tested, and the switch fluorescence ratio was 1.5. In the case of CCGATTTGGT, the switch fluorescence ratio was 2.98. CCGCCGAGTA gave a switch fluorescence ratio of 1.75. CCGCCGGTAT gave a switch fluorescence ratio of 1.55. With CCGCCGGTCT the switch fluorescence ratio was 1.29. For CCGCGATTAG, the switch fluorescence ratio was 3.71. In the case of CCGCGCATCT, the switch fluorescence ratio was 3.94. With CCGCGGATGT the switch fluorescence ratio was 1.09. CCGCGGGTCA showed a switch fluorescence ratio of 1.02. For CCGCGTTTCC, the switch fluorescence ratio was 3.94. CCGCTAAGTT showed a switch fluorescence ratio of 1.88. In the case of CCGCTTTAGC, the switch fluorescence ratio was 1.28. For CCGCTTTATG, the switch fluorescence ratio was 1.87. With CCGGAATATT the switch fluorescence ratio was 2.46. In the case of CCGGACGGTG, the switch fluorescence ratio was 1.03. Work on CCGGATCATG yielded a switch fluorescence ratio of 1. CCGGCACGGC was tested, and the switch fluorescence ratio was 1.07. Sequence CCGGCATGTG has a switch fluorescence ratio of 1.1. Work on CCGGCCCATT yielded a switch fluorescence ratio of 1.09. Sequence CCGGCCGATC has a switch fluorescence ratio of 1.46. CCGGCGCACG gave a switch fluorescence ratio of 2.59. In the case of CCGGCTGAGC, the switch fluorescence ratio was 0.978. For CCGGCTGGGC, the switch fluorescence ratio was 0.988. In the case of CCGGCTTTCA, the switch fluorescence ratio was 1.01. For CCGGGAAACG, the switch fluorescence ratio was 1.04. CCGGGCAGAT showed a switch fluorescence ratio of 1.84. With CCGGGCTACC the switch fluorescence ratio was 1.48. CCGGGGCAGC showed a switch fluorescence ratio of 2.24. For CCGGGTCGCT, the switch fluorescence ratio was 1.02. For CCGGGTGAAC, the switch fluorescence ratio was 1.5. CCGGGTGAGG gave a switch fluorescence ratio of 1.06. In the case of CCGGTACCCT, the switch fluorescence ratio was 1.04.
